According to article PMC3217859:
These are yes or no findings as the source states them, for the method shown. Binding seen in cells or lysates may run through a third protein. Some entries that bind do so weakly or less than the wild type. Where a sequence is shown, tags or fusion partners need not be part of it.

Amino acid sequences for entries named in this document (tags omitted).
UniProt Q9P289: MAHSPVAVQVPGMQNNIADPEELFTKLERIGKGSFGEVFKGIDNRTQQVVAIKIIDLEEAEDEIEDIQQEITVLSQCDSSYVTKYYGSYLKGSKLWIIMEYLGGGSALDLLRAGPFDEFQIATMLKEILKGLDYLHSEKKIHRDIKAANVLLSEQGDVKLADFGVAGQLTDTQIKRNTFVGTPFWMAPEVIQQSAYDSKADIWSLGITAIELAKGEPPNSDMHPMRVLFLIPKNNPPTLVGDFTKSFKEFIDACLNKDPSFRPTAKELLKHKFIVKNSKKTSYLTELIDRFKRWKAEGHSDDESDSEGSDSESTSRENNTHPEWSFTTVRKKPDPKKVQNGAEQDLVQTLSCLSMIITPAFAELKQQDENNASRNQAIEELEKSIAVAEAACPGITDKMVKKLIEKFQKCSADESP

Target: T1, HA-tagged wild-type striatin (human) (UniProt O43815)
T1 sequence: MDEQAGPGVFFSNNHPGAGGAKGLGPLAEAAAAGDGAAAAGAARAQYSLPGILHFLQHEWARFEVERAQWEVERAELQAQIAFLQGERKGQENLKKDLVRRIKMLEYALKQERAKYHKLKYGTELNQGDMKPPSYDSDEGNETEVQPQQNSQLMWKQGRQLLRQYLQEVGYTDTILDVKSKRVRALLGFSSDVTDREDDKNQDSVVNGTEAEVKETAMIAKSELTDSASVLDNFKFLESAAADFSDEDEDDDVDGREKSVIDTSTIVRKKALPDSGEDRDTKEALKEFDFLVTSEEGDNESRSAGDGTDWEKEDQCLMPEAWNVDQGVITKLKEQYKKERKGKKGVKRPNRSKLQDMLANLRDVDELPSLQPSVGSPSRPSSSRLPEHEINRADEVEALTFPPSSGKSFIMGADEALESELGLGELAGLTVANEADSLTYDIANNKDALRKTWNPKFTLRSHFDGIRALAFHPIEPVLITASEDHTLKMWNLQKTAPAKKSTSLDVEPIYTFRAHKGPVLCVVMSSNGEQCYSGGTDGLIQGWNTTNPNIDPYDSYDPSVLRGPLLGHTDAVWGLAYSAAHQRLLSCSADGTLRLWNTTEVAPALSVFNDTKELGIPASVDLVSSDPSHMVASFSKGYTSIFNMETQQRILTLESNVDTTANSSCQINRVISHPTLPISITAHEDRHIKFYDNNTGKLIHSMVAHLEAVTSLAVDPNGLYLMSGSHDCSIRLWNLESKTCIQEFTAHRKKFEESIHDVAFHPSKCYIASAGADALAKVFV
Assay: co-IP; anti-HA immunoprecipitates (12CA5 with protein A-Sepharose, or F7 anti-HA-agarose when probing for Mst3 or Mst4; 1.5 h, 4°C) of lysates (1% Nonidet P-40, 0.135 M NaCl, 10% glycerol, 20 mM Tris pH 8.0) of HEK293 cells transfected with HA-striatins; endogenous partners by immunoblot, partner/HA-striatin ratio by chemilumimager against wild type; 50 mM NaF and 100 nM okadaic acid in the lysis buffer in the phosphorylation experiments

- binding: binds
Substance: Mst4 kinase (from UniProt Q9P289 1-416) (enzyme)
